In the RNAGym collection of RNA variant scans (doi:10.7554/elife.90254):
The source gives no read counts; variants with many changes may rest on few reads.

B1: LINE1-mini (parent)
chain: GGCAGAGCUCAACACAGCGUGGCAAAGUGGCUGUGGCUAGACUGCC

Variants of: B1
Test: self-cleavage, relative activity (ratio to wild type); higher = more cleavage; in vitro, sequencing; the parent is a self-cleaving ribozyme

| Variant | self-cleavage |
| --- | --- |
| A12G A14C C18A U28G | 0.04 |
| A12G G35U G36A | 0.1 |
| A12U C13U U38A C42A | 0.09 |
| A12G A25U G36U G44U | 0.01 |
| A12C U28A C31A | 0.02 |
| A12G A39U G40C G44C | 0 |
| A12G C37A C46U | 0.07 |
| A12G A14U C15G G21C C31U U32C | 0.03 |
| A12U C23A C37U | 0 |
| A12U C23G G30U G33A | 0 |
| A12G G29U G35C | 0.02 |
| A12G C18A G36A C45A | 0.01 |
| A12U G17A C18U U34G | 0.01 |
| A12U G17A C23A G30C | 0 |
| A12G G17A G19C A39G | 0 |
| A12G G36C A41U | 0.09 |
| A12G G21A U32G | 0.01 |
| A12C G33C C42U | 0.01 |
| A12U G19A C23A | 0.18 |
| A12G U20A G22A | 0.01 |
| A12U G21U C23G C31G | 0.03 |

| Variant | self-cleavage |
| --- | --- |
| A12G C18A G30U | 0.08 |
| A12G G19U G33C A41U C42A | 0 |
| A12G C13A A14C U28C | 0.01 |
| A12C G36A A39U C42U | 0.03 |
| A12G U34C A41G | 0.01 |
| A12G C18A A25G G27A G36A | 0.03 |
| A12U G17A U38A | 0.02 |
| A12U C18U G27C G44C | 0.05 |
| A12G G36A G44C C45U | 0.02 |
| A12G G30A U32G C42A | 0.08 |
| A12U G19C C31A | 0.06 |
| A12U C15G C42G | 0.01 |
| A12G G19A U28A C37U | 0.02 |
| A12U A24C G27A | 0.38 |
| A12G C18G G29C | 0.04 |
| A12G G17U G19A U20G A24U | 0.01 |
| A12U C18A G33A | 0.01 |
| A12G G17A G40C | 0.04 |
| A12G U28A U38C | 0.07 |
| A12G G17A C31U | 0.02 |
| A12U C13G C45A | 0.04 |

| Variant | self-cleavage |
| --- | --- |
| A12U C15G A41G | 0.15 |
| A12G U38G C45U | 0.02 |
| A12G C15G G44A | 0 |
| A12G A41U U43C | 0.03 |
| A12U C15A G29A C42A | 0.02 |
| A12U C15G G36A | 0.01 |
| A12U G21C A26U U34G G35C C37A | 0.01 |
| A12U A16G G19C A26G | 0.04 |
| A12G C13A A25C U28C | 0.02 |
| A12U C18A C37U | 0.01 |
| A12U C13A G17U | 0.2 |
| A12U C13U C42U | 0.05 |
| A12U A26G G36C | 0.04 |
| A12U C23G U28G | 0.02 |
| A12C G44U C45A | 0.07 |
| A12U C23A A26G U28A G30C | 0.19 |
| A12G G17A G22A G27C G40C | 0.02 |
| A12G G17C A25G | 0.08 |
| A12G C15A C18A | 0.03 |
| A12G U34A A41G | 0 |
| A12G G17C C23G G30A C37U G40U C42U C46U | 0.05 |

| Variant | self-cleavage |
| --- | --- |
| A12G A16C U28A C46U | 0.04 |
| A12G C18A A26G G27C U38G | 0 |
| A12G C15U U38G G44U | 0.06 |
| A12U C18U A39U | 0.03 |
| A12G C23G G36A U38C G44C | 0.02 |
| A12U C13A G21A G33C U34A | 0.09 |
| A12G C13G G19A G36U | 0.06 |
| A12U C23G G29U | 0.09 |
| A12G G33U U43A C45G | 0 |
| A12U A26G G29A G30C C42U | 0.09 |
| A12G G19U U20G G21C U38C | 0.02 |
| A12G G17A C18A | 0.03 |
| A12U C15A C46G | 0.06 |
| A12C U28A U34G C37A | 0.01 |
| A12G G29A U32A | 0.01 |
| A12G C18A C46A | 0.03 |
| A12U G17A G22C A26G | 0.07 |
| A12U A24C A39G G44A | 0.01 |
| A12G A14G U43G | 0 |
| A12G U38C G40A C42G C45G | 0.02 |
